Assay in all cases: enrichment score (SH2-bound / input frequency) (ratio); bacterial display of known human phosphotyrosine sites (pTyr-Var adds point mutants) read by sequencing; higher = stronger binding; tyrosines were phosphorylated by kinases first
What all share (conditions): peptide library: pTyr-Var

In test [1] the target is SHP2 C-SH2 domain E139D.
Test [2] concerns the target SHP2 C-SH2 domain wild-type.
The target in test [3] is SHP2 N-SH2 domain L43F.
Test [4] addresses SHP2 N-SH2 domain T42A.
Test [5] deals with SHP2 N-SH2 domain T52S.
Test [6] has as its target SHP2 N-SH2 domain wild-type.

Some of the results follow. No stated cut-off is given here; in the data, active = 3.2 or more and inactive = the rest. Most of these values are background signal.
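Further: displayed peptides selected on beads carrying the immobilized SH2 domain, with library peptides lacking any tyrosine serving as negative controls.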

For YRNKPYISWPS [CDC42BPB_Y1638_S1633Y], the enrichment score is inactive: 3 in test [1]; inactive: 2.64 in test [2]; inactive: 2.81 in test [3]; inactive: 2.32 in test [4]; inactive: 3.05 in test [5]; inactive: 2.54 in test [6].
As for NELTFYCFKKD [CD59_Y87_C89Y_YF], the enrichment score in test [1] is inactive: 0.465; in test [2], inactive: 0.474; in test [3] it was inactive: 0.476; in test [4] it was inactive: 0.569; in test [5], inactive: 0.511; in test [6], inactive: 0.612.
For the molecule RWHEGYRQTPR [CD44_Y412_K417R], the enrichment score in test [1] is inactive: 2.72; in test [2], inactive: 1.89; in test [3] it was inactive: 2.27; in test [4], inactive: 2.43; in test [5], inactive: 2.41; in test [6], inactive: 2.13.
With AAYNKYDQERF [CDC73_Y293_R292K], the enrichment score is inactive: 0.866 in test [1]; inactive: 0.787 in test [2]; inactive: 0.727 in test [3]; inactive: 0.662 in test [4]; inactive: 0.823 in test [5]; inactive: 0.712 in test [6].
For the molecule PLLEYYWDIFT [CDAN1_Y713_R714W], the enrichment score in test [1] was inactive: 2.81; in test [2] it was active: 3.48; in test [3] it was active: 3.68; in test [4], inactive: 2.86; in test [5], active: 3.2; in test [6] it was inactive: 2.64.
Turning to DIPIRYSIMGV [CDH4_Y205_T208M], the enrichment score is inactive: 0.875 in test [1]; inactive: 1.1 in test [2]; inactive: 0.907 in test [3]; inactive: 2.44 in test [4]; inactive: 1.24 in test [5]; inactive: 0.735 in test [6].
In the case of ENELTYYCCKK [CD59_Y86], the enrichment score in test [1] was inactive: 0.725; in test [2], inactive: 0.528; in test [3] it was inactive: 0.574; in test [4], inactive: 0.503; in test [5], inactive: 0.58; in test [6], inactive: 0.529.
For RQRTAYFSLDT [CDH1_Y68], the enrichment score in test [1] is inactive: 1; in test [2], inactive: 2.18; in test [3] it was inactive: 0.736; in test [4], inactive: 0.981; in test [5], inactive: 0.672; in test [6], inactive: 0.731.
Turning to IEEGTYGVAFR [CDK11B_Y449_V452A_YF], the enrichment score is inactive: 0.921 in test [1]; inactive: 0.856 in test [2]; inactive: 0.752 in test [3]; inactive: 0.683 in test [4]; inactive: 0.642 in test [5]; inactive: 0.978 in test [6].
KQQEIYQELTQ [CD209_Y239]: the enrichment score is inactive: 0.896 in test [1]; inactive: 1.1 in test [2]; inactive: 0.999 in test [3]; inactive: 0.778 in test [4]; inactive: 0.872 in test [5]; inactive: 1.04 in test [6].
Take KLADMYGGGKD [CDH1_Y876_E880K]: the enrichment score in test [1] is inactive: 0.72; in test [2], inactive: 0.609; in test [3] it was inactive: 0.74; in test [4], inactive: 0.69; in test [5], inactive: 0.901; in test [6] it was inactive: 0.687.
As for PIPAAYNRFDQ [CDC73_Y290_YF], the enrichment score in test [1] is inactive: 0.525; in test [2] it was inactive: 0.605; in test [3] it was inactive: 0.79; in test [4], inactive: 0.523; in test [5], inactive: 0.645; in test [6], inactive: 0.957.
As for PIPAAYNKFDQ [CDC73_Y290_R292K_YF], the enrichment score in test [1] is inactive: 0.705; in test [2], inactive: 0.753; in test [3], inactive: 0.826; in test [4], inactive: 0.713; in test [5], inactive: 0.826; in test [6], inactive: 0.772.
In the case of ENELTYFCFKK [CD59_Y86_C89Y_YF], the enrichment score was inactive: 0.789 in test [1]; inactive: 1.09 in test [2]; inactive: 0.841 in test [3]; inactive: 0.866 in test [4]; inactive: 0.735 in test [5]; inactive: 1.11 in test [6].
For the molecule FGDTSYIPFRD [CDC14C_Y132_P131S], the enrichment score in test [1] is inactive: 0.66; in test [2] it was inactive: 0.675; in test [3] it was inactive: 0.644; in test [4], inactive: 0.552; in test [5], inactive: 0.628; in test [6], inactive: 0.731.
For the molecule SLQFEYVHFGG [CDC14A_Y591_S589F_YF], the enrichment score is inactive: 1.74 in test [1]; inactive: 1.5 in test [2]; inactive: 1.58 in test [3]; inactive: 1.55 in test [4]; inactive: 1.99 in test [5]; inactive: 1.5 in test [6].
Take AGQEDCDRLRP [CDC42_Y64_Y64C]: the enrichment score in test [1] is inactive: 0.684; in test [2] it was inactive: 0.767; in test [3], inactive: 0.504; in test [4], inactive: 0.519; in test [5] it was inactive: 0.564; in test [6], inactive: 0.585.
For KQQEIYQEVTQ [CD209_Y239_L242V], the enrichment score in test [1] was inactive: 0.71; in test [2] it was inactive: 0.599; in test [3], inactive: 0.725; in test [4], inactive: 0.624; in test [5] it was inactive: 0.787; in test [6], inactive: 0.795.

For the origin of these results see the supplement of paper PMC10369915.
